This passage reports binding results from publication PMC6764942, “TFF3 interacts with LINGO2 to regulate EGFR activation for protection against colitis and gastrointestinal helminths” (Nature Communications, 2019).

Sequences of proteins named here, by UniProt entry; tags and fusion partners are left off. Residues count along the entry.
UniProt Q3URE9, residues 28-606: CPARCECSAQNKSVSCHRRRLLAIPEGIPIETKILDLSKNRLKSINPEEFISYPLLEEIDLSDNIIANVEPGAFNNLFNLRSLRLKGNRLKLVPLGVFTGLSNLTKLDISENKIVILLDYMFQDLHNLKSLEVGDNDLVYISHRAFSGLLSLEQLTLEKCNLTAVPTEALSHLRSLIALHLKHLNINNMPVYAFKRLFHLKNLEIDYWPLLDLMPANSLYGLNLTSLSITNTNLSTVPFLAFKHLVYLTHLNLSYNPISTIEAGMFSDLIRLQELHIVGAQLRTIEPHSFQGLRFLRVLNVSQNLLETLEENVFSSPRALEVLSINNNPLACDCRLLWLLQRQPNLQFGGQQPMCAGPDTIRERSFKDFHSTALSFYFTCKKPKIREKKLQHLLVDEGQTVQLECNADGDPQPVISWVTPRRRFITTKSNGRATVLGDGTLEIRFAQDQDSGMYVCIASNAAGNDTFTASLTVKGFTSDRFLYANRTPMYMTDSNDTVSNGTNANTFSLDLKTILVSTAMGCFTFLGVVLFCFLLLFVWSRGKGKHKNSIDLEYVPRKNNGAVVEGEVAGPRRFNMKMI
UniProt Q7L985, residues 28-606: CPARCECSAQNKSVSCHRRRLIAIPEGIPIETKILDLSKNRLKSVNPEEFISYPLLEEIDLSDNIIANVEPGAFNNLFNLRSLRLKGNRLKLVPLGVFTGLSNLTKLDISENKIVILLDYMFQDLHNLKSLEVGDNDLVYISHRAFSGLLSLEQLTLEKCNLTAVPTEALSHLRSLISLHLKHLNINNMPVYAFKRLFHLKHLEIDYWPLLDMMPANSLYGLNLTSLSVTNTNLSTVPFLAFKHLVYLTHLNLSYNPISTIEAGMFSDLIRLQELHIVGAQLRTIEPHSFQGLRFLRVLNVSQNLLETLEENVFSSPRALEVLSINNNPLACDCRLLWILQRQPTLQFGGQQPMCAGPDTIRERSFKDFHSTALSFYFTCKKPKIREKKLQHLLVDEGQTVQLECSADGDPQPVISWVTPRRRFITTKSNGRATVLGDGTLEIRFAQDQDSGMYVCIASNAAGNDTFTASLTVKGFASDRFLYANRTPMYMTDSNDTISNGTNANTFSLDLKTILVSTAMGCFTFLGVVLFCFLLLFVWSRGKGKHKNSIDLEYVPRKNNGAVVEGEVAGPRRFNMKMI
UniProt P70658: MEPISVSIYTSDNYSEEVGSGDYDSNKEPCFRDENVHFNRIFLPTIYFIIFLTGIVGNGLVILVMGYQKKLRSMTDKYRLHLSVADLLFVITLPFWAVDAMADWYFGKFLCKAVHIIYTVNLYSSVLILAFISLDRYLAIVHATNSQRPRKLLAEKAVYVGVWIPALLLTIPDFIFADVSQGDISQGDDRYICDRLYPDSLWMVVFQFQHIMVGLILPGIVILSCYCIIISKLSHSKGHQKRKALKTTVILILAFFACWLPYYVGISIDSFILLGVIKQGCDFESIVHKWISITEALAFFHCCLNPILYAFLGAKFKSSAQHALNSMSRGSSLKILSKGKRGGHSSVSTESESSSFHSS
UniProt Q9QUN7, residues 25-784: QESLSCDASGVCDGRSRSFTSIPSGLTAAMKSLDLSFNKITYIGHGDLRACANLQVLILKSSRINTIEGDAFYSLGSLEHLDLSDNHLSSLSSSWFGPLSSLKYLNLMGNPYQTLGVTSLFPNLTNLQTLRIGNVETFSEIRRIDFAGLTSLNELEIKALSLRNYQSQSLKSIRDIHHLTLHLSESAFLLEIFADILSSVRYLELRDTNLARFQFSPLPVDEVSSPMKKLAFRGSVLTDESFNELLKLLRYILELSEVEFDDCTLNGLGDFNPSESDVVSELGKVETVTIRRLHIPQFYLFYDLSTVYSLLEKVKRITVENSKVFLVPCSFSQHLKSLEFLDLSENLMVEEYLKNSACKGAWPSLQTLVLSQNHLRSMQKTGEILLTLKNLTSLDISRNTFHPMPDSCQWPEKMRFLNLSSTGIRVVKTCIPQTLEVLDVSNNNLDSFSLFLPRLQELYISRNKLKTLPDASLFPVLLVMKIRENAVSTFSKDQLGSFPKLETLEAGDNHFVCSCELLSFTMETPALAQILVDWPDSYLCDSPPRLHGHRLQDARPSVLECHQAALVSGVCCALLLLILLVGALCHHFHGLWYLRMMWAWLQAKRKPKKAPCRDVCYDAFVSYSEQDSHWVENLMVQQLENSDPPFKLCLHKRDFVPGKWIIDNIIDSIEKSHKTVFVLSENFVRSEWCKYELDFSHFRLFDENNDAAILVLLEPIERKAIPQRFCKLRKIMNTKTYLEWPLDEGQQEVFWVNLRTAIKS

These are yes or no findings as the source states them, for the method shown. For some assays here: Binding seen in cells or lysates may run through a third protein. Some entries that bind do so weakly or less than the wild type. For some assays here: Where a sequence is shown, tags or fusion partners need not be part of it.

For one assay, the target named is EGFR-GFP (mouse) (UniProt Q01279). Put plainly: co-IP; HEK293 co-transfected with LINGO2 and EGFR constructs; about 0.5 mg total protein; reciprocal IP with anti-Flag or anti-GFP, protein A agarose 2 h at 4 C; normal IgG as negative control.
Another assay has as its target T1, murine TFF3-Fc (mouse) (UniProt Q62395).
T1 sequence: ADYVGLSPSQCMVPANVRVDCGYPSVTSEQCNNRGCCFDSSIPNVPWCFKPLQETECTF
The assay is described as follows: co-IP; at least 0.6 mg LINGO2-Flag lysate (1% digitonin, 150 mM NaCl, 1 mM MgCl2, 10 mM TrisCl pH 7.4) incubated with 10 ug TFF3-Fc or Fc overnight, precipitated with protein G agarose 2 h at 4 C; blot anti-Flag; only the target purified.

The target of assay [1] is LINGO2-Flag (mouse) (UniProt Q3URE9). Put plainly: co-IP; mixture of 100 ug LINGO2 lysate and 50 ug EGFR lysate incubated with media, 2 ug mIL2 or 2 ug TFF3 for two hours at 4 C, then IP of LINGO2 and blot for EGFR.
For assay [2] the target is unchanged. Put plainly: co-IP; HEK293 co-transfected with LINGO2 and EGFR constructs; about 0.5 mg total protein; reciprocal IP with anti-Flag or anti-GFP, protein A agarose 2 h at 4 C; normal IgG as negative control.
The target in assay [3] is LINGO2, endogenous in human rectosigmoid tissue (human (endogenous in rectosigmoid biopsy tissue)) (UniProt Q7L985). Put plainly: proximity ligation; FFPE human rectosigmoid biopsy tissue; goat anti-LINGO2 (R&D AF3679) and mouse anti-TFF3 (eBioscience); Duolink In Situ Orange; single antibody as negative control.
Assay [4] deals with LINGO2-Flag (mouse) (UniProt Q3URE9). The assay is described as follows: co-IP; same experiment as a6, for the added soluble rTFF3 (2 ug, two hours at 4 C) against LINGO2 in the lysate mixture; read out as loss of co-precipitated EGFR; only the binder purified.
Assay [5] has as its target CXCR4-GFP on HEK293 transfectants (mouse) (UniProt P70658). Put plainly: flow cytometry on cells; HEK293 transfected with GFP-labeled receptors, 24 h later incubated with PBS or 3 ug Alexa Fluor 647 labeled soluble ligand for 16 h at 4 C; double positive (GFP and AF-647) cells counted; only the binder purified. Background: In flow cytometry, cells or beads pass a laser one at a time.

For assay [6], the target named is TLR2-GFP on HEK293 transfectants (mouse) (UniProt Q9QUN7). The assay is described as follows: condition: 3 μg of Alexa Fluor 647 labeled soluble ligands; flow cytometry on cells; HEK293 transfected with GFP-labeled receptors, 24 h later incubated with PBS or 3 ug Alexa Fluor 647 labeled soluble ligand for 16 h at 4 C; double positive (GFP and AF-647) cells counted; only the binder purified.

On to “LINGO2-Flag (from UniProt Q3URE9 28-606) (receptor)”, for which the binding entry with EGFR-GFP (mouse) and with murine TFF3-Fc (mouse) was “binds” each time.
Take “EGFR-GFP (from UniProt Q01279 25-1210) (receptor)”: the binding entry with LINGO2-Flag (mouse) [1] and with LINGO2-Flag (mouse) [2] was “binds” each time.

B1: TFF3, endogenous in human rectosigmoid tissue (protein, UniProt Q07654 22-80)
chain: EEYVGLSANQCAVPAKDRVDCGYPHVTPKECNNRGCCFDSRIPGVPWCFKPLQEAECTF
Turning to B1, the binding entry in assay [3] is recorded as “binds”.

B2: soluble rTFF3 (unlabeled) (ligand, UniProt Q62395 23-81)
chain: ADYVGLSPSQCMVPANVRVDCGYPSVTSEQCNNRGCCFDSSIPNVPWCFKPLQETECTF
Turning to B2, the binding entry in the assay with LINGO2-Flag (mouse) [4] is recorded as “binds”.

B3: TFF3-647 (murine recombinant TFF3 labeled with Alexa Fluor 647) (ligand, UniProt Q62395 23-81)
chain: ADYVGLSPSQCMVPANVRVDCGYPSVTSEQCNNRGCCFDSSIPNVPWCFKPLQETECTF
modifications: Alexa Fluor 647 dye (site not stated)
Turning to B3, the binding result is on record as “binds” in assay [5] and “no binding” in assay [6].
